Measured values published in PubChem BioAssay AID493208 (National Center for Advancing Translational Sciences (NCATS), 2011).
The whole screen tested about 44,000 compounds, of which about 340 (0.77%) were called active. Inconclusive results (about 5%) are left out. The call rests on the fitted dose curve; in most records, active means well fitted inhibition curve with a large enough effect; inconclusive means small, poorly fitted or top-dose-only effect; inactive means flat fitted curve, though single readings scatter. The list shows a part of the results.

assay: Acumen qHTS Assay for Inhibitors of the mTORC1 Signaling Pathway in MEF (Tsc2-/-, p53-/-) Cells: Sytravon; details: phospho-rpS6 immunofluorescence/PI, 24 h; series mostly up to 38.3 µM; activity change, negative = inhibition: at the top concentration;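 further: plate controls were DMSO for no effect and rapamycin for full effect; nearly all actives have a fitted effect of over 50% in size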
Method in brief: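 Compounds act on Tsc2-/-, p53-/- fibroblasts carrying an empty vector for 24 h before fixation and dual staining for phospho-S6 and DNA (propidium iodide). Values are percentages of cells above a rapamycin-defined pS6/PI threshold.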

Activity change, negative = inhibition, inactive:
CCC(CC)C(=O)Nc1ccc(-c2cn3cccnc3n2)cc1 5.18%
COc1ccc(CNC(=O)CN2C(=O)COc3ccc(S(=O)(=O)NC4CCCC4)cc32)cc1 2.38%
COc1ccc(CCNC(=O)CCc2c(C)nc3cc(-c4ccccc4OC)nn3c2C)c(OC)c1 -6.73%
CCOC(=O)N1CCN(c2ncc3c(n2)CC(c2ccccc2O)CC3=O)CC1 (configuration not stated) 2.71%
COc1ccc(/C=C\c2onc(C)c2S(=O)(=O)N2CCC(C(=O)Nc3cccc(Cl)c3)CC2)cc1 -11%
COc1cccc(C(=O)N2CCc3c([nH]c4ccccc34)C2c2ccc(SC)cc2)c1 (configuration not stated) -0.338%
Cc1ccc(Nc2nnc(-c3cc4c(ccc5ccccc54)oc3=O)s2)cc1 1.8%
COc1cccc(CNC(=O)CCCN2C(=O)CCn3nc(-c4cccn4C)cc32)c1 -2.26%
CCOC(=O)c1cccc(NC(=O)Cn2c(=O)nc(-c3ccccc3F)c3cc(Cl)ccc32)c1 1.57%
CCOc1ccc(CCNC(=O)c2csc3c2CCCCC3)cc1 0.863%
CCn1c(=O)c2cc(C(=O)N(CC(C)C)CC(C)C)sc2c2ccccc21 -9.68%
Cc1ccc(CNc2ncnc3c2nc2n3CCCC2)cc1 -1.37%
CCN(C(=O)CSc1nc2ccccc2n1CC(=O)NCc1ccc(OC)cc1)c1ccccc1 4.24%
CCOC(=O)c1ccc(NC(=O)CN2c3ccccc3S(=O)(=O)c3ccccc32)cc1 -5.92%
CCOC(=O)c1cc(-c2ccccc2)n(CCC(=O)NC2CCCCC2)c1C -0.287%
Cc1ccc2nc(CSc3nnc(NC(=O)c4cccc(Br)c4)s3)cc(=O)n2c1 6.8%
COc1ccc(-c2c(C)nn3c(N4CCN(c5ccccc5)CC4)cc(C)nc23)cc1OC -12.5%
COc1ccc(NC(=O)CC2C(=O)N(c3ccc(F)cc3)C(=O)N2Cc2ccc3c(c2)OCO3)cc1 (configuration not stated) 2.05%
CCCn1c(=N)c(C(=O)NC2CCCC2)cc2c(=O)n3cccc(C)c3nc21 3.08%
COc1ccc(/C=C(/C#N)c2nc(-c3ccc(-c4ccccc4)cc3)cs2)cc1OC 7.56%
CCc1cccc(C)c1NC(=O)c1cc(S(=O)(=O)N2CCOCC2)cn1C 2.78%
CCOC(=O)c1ccccc1NC(=O)n1ncc2cc(Cl)ccc21 1.59%
Cc1noc(C)c1S(=O)(=O)Nc1ccc(C(=O)Nc2ccc(Br)cc2)cc1 0.313%
COc1cc(NC(=O)CCn2cnc3ccccc3c2=O)cc(OC)c1 -1.91%
CCOc1cccc(C(=O)Nc2ccc3oc(-c4cccnc4)nc3c2)c1 -17.9%
CCCCOc1ccc(CNC(=O)c2cc3n(n2)CCCN(Cc2ccc(C)cc2)C3=O)cc1 15.8%
COc1ccc(OCCn2c(C)nc3cc(C)c(C)cc32)cc1 -4.94%
CCCCSCCCNC(=O)c1cn(CC)c2ccc(S(=O)(=O)N3CCCCCC3)cc2c1=O -4.25%
CCCOc1ccc(C(=O)Nc2cc(-c3nc4cc(C)cc(C)c4o3)ccc2C)cc1 3.73%
CN1C(=O)c2ccccc2Sc2ccc(NC(=O)N3CCN(c4ccccc4F)CC3)cc21 -13.8%
Clc1ccc(CCNC(c2nnc(-c3ccccc3)o2)c2ccccc2Cl)cc1 (configuration not stated) -0.815%
CC(C)NC(=O)C1CCN(C(=O)N2CCOc3ccc(Cl)cc32)CC1 -0.609%
Cc1ccc(-c2noc(-c3ccc(N4CCCCC4)c([N+](=O)[O-])c3)n2)cc1 0%
CNC(=O)COc1ccc(NC(=O)c2ccc(-c3nn(C)c(=O)c4ccccc34)cc2)cc1 1.68%
CCn1c(SCc2ccccc2Cl)nc(=O)c2c(C(=O)OC)cc(C3CC3)nc21 -8.14%
Cc1cc(C)c2c(-n3cccc3)c(C(=O)NCCCN3CCCCC3C)sc2n1 (configuration not stated) -9.71%
COc1cc(-c2noc(-c3cc(C(C)C)[nH]n3)n2)cc(OC)c1OC -23.2%
CCOC(=O)c1c(NC(=O)c2cc(=O)c3c(C)cc(C)cc3o2)sc(C(C)=O)c1C 2.12%
CC(=O)Nc1nonc1-c1nnc(SCc2ccc(Cl)cc2)n1C -3.55%
Cc1nn(S(=O)(=O)c2ccc(Cl)cc2)c(C)c1S(=O)(=O)N1CCCCCC1 -5.9%
Cc1ccc2cccc(NC(=O)c3ccc(-c4ccc(Br)cc4)o3)c2n1 -1.21%
Cc1cc(=O)c2cc(C(=O)Nc3ccccc3)ccc2[nH]1 2.33%
CCc1ccc(-n2c(-c3ccccc3)c(C)n3c4c(=O)n(C)c(=O)n(C)c4nc23)cc1 3.09%
COc1cccc(N2C(=O)N(CC(=O)NCc3cccc(OC)c3OC)c3ccccc3S2(=O)=O)c1 -1%
COc1cccc(C2C(C(=O)Nc3ccccc3OC)=C(C)Nc3nc4ccccc4n32)c1 (configuration not stated) -27%
CCc1ccccc1Nc1ncnc2c1nc1n2CCCC1 5.72%
O=C(Nc1ccc(F)cc1)c1cccn1-c1nnc(N2CCCCC2)s1 0.981%
COc1ccccc1N1CCN(C(=O)CCS(=O)(=O)c2cc(Br)cc3c2N(C(=O)C2CC2)CC3)CC1 -11.1%
CCOC(=O)c1c(C)oc2nc(C)nc(N3CCN(c4ccccc4)CC3)c12 2.26%
O=C(CSc1nnc(CNC(=O)c2ccccc2)n1-c1cccc(Cl)c1)Nc1ccccc1F 1.23%
COc1ccc2oc(=O)c(C(=O)NCCc3c(C)[nH]c4ccc(Br)cc34)cc2c1 -7.15%
CCCNC(=O)c1cnc2sc(N3CCCCC3)nn2c1=O 6.1%
Cc1cn2c(=O)cc(COc3ccccc3NC(=O)c3ccccc3C)nc2s1 2.92%
Cc1ccc(-c2csc(/C(C#N)=C/c3ccccc3Cl)n2)cc1 -2.86%
O=C(NCc1cccc(F)c1)C1CCN(C(=O)c2sccc2-n2cccc2)CC1 -0.881%
O=C(Nc1cc(NC(=O)c2ccccc2Cl)ccc1Cl)c1ccccc1 3.16%
CCOc1ccccc1CNC(=O)c1ccc2nc(Cc3ccc(OC)cc3)oc2c1 -2.12%
COc1ccc(CNC(=O)c2ccc(Cn3c(=O)c4cccn4c4cccnc43)cc2)cc1OC -22.2%
COc1ccc(N2CCN(C(=O)CCNS(=O)(=O)c3ccc4c(c3)CCN4C(=O)C3CC3)CC2)cc1 -16.5%
CCOCCCNC(=O)NC(CCC(C)C)c1c(-n2cccc2)sc2c1CCN(C)C2 (configuration not stated) -13.2%
CCc1ccc(NC(=O)CSc2cn(CC(=O)N3CCCC3)c3ccccc23)cc1 -3.92%
Cc1ccc(OCC(=O)Nc2ccc(S(=O)(=O)Nc3ncccn3)cc2)c(C(C)(C)C)c1 12.3%
